Results published in the supplement of paper PMC7125110.
± gives the standard error. This sample is rich in variants without activity.

B1: glmS ribozyme (parent)
chain: AUAAAAGCGCCAGAACUACAGAAAUGUAGUUGACGAGGAGGAGGUUUAUCGAAUUUUCGGCGGAUGCCUCCAAA

How the values were obtained:
Conditions in all cases: with glucosamine-6-phosphate
[1] = variants of: B1; experiment: self-cleavage kobs at 40 uM GlcN6P; higher = faster cleavage; RNA array
In short: (§1)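 Sequenced MiSeq chips were the platform: E. coli RNA polymerase transcribed barcoded ribozyme variants on them in situ, and a hybridised Cy3 probe tracked these at 37 °C. After glucosamine-6-phosphate (40 μM to 10 mM) in HEPES/KCl/Mg(OAc)2 buffer was flowed in, tiles were imaged over ~14 h. Signals normalised to baseline and to non-cleaving reference variants were reduced to per-tile medians and fit to one- or two-exponential decays to obtain kobs. kcat and KM were derived through weighted Michaelis–Menten fits across concentrations.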

[2] = variants of: B1; experiment: self-cleavage kobs at 2500 uM GlcN6P; higher = faster cleavage; RNA array
In short: as §1

[3] = variants of: B1; experiment: self-cleavage kobs at 10000 uM GlcN6P; higher = faster cleavage; RNA array
In short: as §1

[4] = variants of: B1; experiment: self-cleavage kobs at 640 uM GlcN6P; higher = faster cleavage; RNA array
In short: as §1

[5] = variants of: B1; experiment: self-cleavage kobs at 160 uM GlcN6P; higher = faster cleavage; RNA array
In short: as §1

Variant	self-cleavage kobs at 40 uM GlcN6P [1] [s⁻¹]	self-cleavage kobs at 2500 uM GlcN6P [2] [s⁻¹]	self-cleavage kobs at 10000 uM GlcN6P [3] [s⁻¹]	self-cleavage kobs at 640 uM GlcN6P [4] [s⁻¹]	self-cleavage kobs at 160 uM GlcN6P [5] [s⁻¹]
AUAAAAGCGCCAGAACUACAGAAAUGUAGUUGACUAGACGGAGGUUUAACGAAUCUUCGGCGGAUGCCUCCAAA	< 1e-05	< 1e-05	< 1e-05	–	–
AUAAAAGCGCCAGAACUACAGAAAUGUAGUUGACUAGGAGGAGGUUUAUCGAAUUUUCGGCGGAUGCCUCGAAA	< 1e-05	< 1e-05	< 1e-05	< 1e-05	–
AUAAAAGCGCCAGAACUACAGAAAUGUAGUUGACUAGGAGGAGGUUUAUCGAAUUUUCGGCGGAUGCCUCAAAA	< 1e-05	< 1e-05	< 1e-05	< 1e-05	< 1e-05
AUAAAAGCGCCAGAACUACAGAAAUGUAGUUGACCAGGAGGAGGUUUAUCGAACUUUCGGCGGAUGCCUCCAAA	< 1e-05	< 1e-05	< 1e-05	–	< 1e-05
AUAAAAGCGCCAGAACUACAGAAAUGUAGUUGACCAGGAGGAGGUUCAUCGAAUUUUCGGCGGAUGCCUCCAAA	< 1e-05	–	< 1e-05	–	–
AUAAAAGCGCCAGAACUACAGAAAUGUAGUUGACCAGGAGGAGGUUAAUCGAAUUUUCGGCGGAUGCCUCCAAA	< 1e-05	< 1e-05	< 1e-05	< 1e-05	< 1e-05
AUAAAAGCGCCAGAACUACAGAAAUGUAGUUGACCAGGAGGAGGUUUAUCGAAUGUUCGGCGGAUGCCUCCAAA	< 1e-05	< 1e-05	< 1e-05	–	–
AUAAAAGCGCCAGAACUACAGAAAUGUAGUUGACCAGGAGGAGGUUUAACGAAUUUUCGGCGGAUGCCUCCAAA	< 1e-05	< 1e-05	–	< 1e-05	–
AUAAAAGCGCCAGAACUACAGAAAUGUAGUUGACUAGGUGGAGAGUUAUCGAAUUUUCGGCGGAUGCCUCCAAA	< 1e-05	–	< 1e-05	< 1e-05	< 1e-05
AUAAAAGCGCCAGAACUACAGAAAUGUAGUUGACUAAGAGGAGGUUUAUCGAAUUUUCGGCGGAUGCCUCCAAA	< 1e-05	< 1e-05	–	< 1e-05	–
AUAAAAGCGCCAGAACUACAGAAAUGUAGUUGACUAGGAGGAGGUUUAUCGAAUUUUCGGAGGAUUCCUCCAAA	< 1e-05	–	< 1e-05	–	–
AUAAAAGCGCCAGAACUACAGAAAUGUAGUUGACUAGGAGGAGGUUUAUCGAAUUUUCGGUGGAGGCCUCCAAA	< 1e-05	–	–	–	–
AUAAAAGCGCCAGAACUACAGAAAUGUAGUUGACCAGGAGGAGGUUUAUCGAAUCUUCGGCGGAUGGUUCCAAA	< 1e-05	–	< 1e-05	–	–
AUAAAAGCGCCAGAACUACAGAAAUGUAGUUGACUAGGUGGAGGUUUAUCGAGUUUUCGGCGGAUGCCUCCAAA	< 1e-05	–	< 1e-05	–	–
AUAAAAGCGCCAGAACUACAGAAAUGUAGUUGACUAGGAGGAUGUUUAUCGAAAUUUCGGCGGAUGCCUCCAAA	< 1e-05	–	< 1e-05	–	–
AUAAAAGCGCCAGAACUACAGAAAUGUAGUUGACUAGGAGGAGGUUUAUCGAAUUUUCUGCGGAUGCCUCCAAA	< 1e-05	< 1e-05	< 1e-05	< 1e-05	< 1e-05
AUAAAAGCGCCAGAACUACAGAAAUGUAGUUGACUAGGAGCAAGUUUAUCGAAUUUUCGGCGGAUGCCUCCAAA	< 1e-05	–	–	< 1e-05	–
AUAAAAGCGCCAGAACUACAGAAAUGUAGUUGACUAGGCGGAGGUUUAUCGAAUUUUCGGCGGAUGCCUCCAAA	< 1e-05	< 1e-05	< 1e-05	–	< 1e-05
AUAAAAGCGCCAGAACUACAGAAAUGUAGUUGACUAGGAGGAGGUUUAUCGAUUUUUCGGGGGAUGCGUCCAAA	0.000579 ± 0.00022	–	0.000516 ± 0.0002	–	–
AUAAAAGCGCCAGAACUACAGAAAUGUAGUUGACUAGGAGGCGGUUUAUCGAAUUUUCGGCAGAUGCCUCCAAA	< 1e-05	–	< 1e-05	–	–
AUAAAAGCGCCAGAACUACAGAAAUGUAGUUGACUCGGAGGAGGUUAAUCGAAUUUUCGGCGGAUGGCUCCAAA	< 1e-05	–	–	–	–
AUAAAAGCGCCAGAACUACAGAAAUGUAGUUGACUAGGAGGAGGUUUAUCGAAUUUUAGGCGGAUGCAUCCAAA	< 1e-05	< 1e-05	< 1e-05	< 1e-05	–
AUAAAAGCGCCAGAACUACAGAAAUGUAGUUGACUAGGAGAAGGUUUAUCGAAUUUUCGGCGGAUGCCUCCAAA	< 1e-05	< 1e-05	< 1e-05	< 1e-05	< 1e-05
AUAAAAGCGCCAGAACUACAGAAAUGUAGUUGACUAGGAGGAGGUUUAUCGAAUUUUCGGCGGAUGGCUCAAAA	< 1e-05	–	–	–	–
AUAAAAGCGCCAGAACUACAGAAAUGUAGUUGACUAGGAGGAGGUUUUUCGAAUUUUCGGCGGAUGCCUCGAAA	< 1e-05	–	–	–	–
AUAAAAGCGCCAGAACUACAGAAAUGUAGUUGACUACGAGGGGGUUUAUCGAAUUUUCGGCGGAUGCCUCCAAA	< 1e-05	–	< 1e-05	–	–
